We go through 65 molecules from the supplement of paper PMC2702839.

Where a name gives a salt, the structure may show the parent alone. This is one part of the list.

In this assay the test system is Schistosoma mansoni schistosomula. As to the kind of experiment: phenotypic hit in primary schistosomula screen (any phenotype vs DMSO control) (binary (1 = hit, 0 = no phenotype)); higher = active (phenotype induced). The settings on record: 1 µM; time (d): 7.
As to `Nc1nc(=O)c2nc(CNc3ccc(C(=O)N[C@@H](CCC(=O)O)C(=O)O)cc3)cnc2[nH]1` [folic acid], the phenotypic hit was inactive: 0. Consider `CC(=O)N[C@@H](CC(C)C)C(=O)O` [acetyl-l-leucine], for which the phenotypic hit is inactive: 0. On to `COc1ccc(-c2cc(=O)c3c(O)cc(O)cc3o2)cc1O` [diosmetin], for which the phenotypic hit was inactive: 0. For `CC(=O)OC[C@@]1(O)C[C@@]23CC[C@@H]4c5ccoc5CC[C@@]4(C)[C@@H]2CC[C@@H]1C3` [cafestol acetate], the phenotypic hit was inactive: 0.

`COc1cc2ccc(=O)oc2c(OC)c1OC` [fraxidin methyl ether]: the phenotypic hit was inactive: 0.

On to `CO/N=C(\C(=O)N[C@@H]1C(=O)N2C(C(=O)O)=C(CSc3nc(=O)c(O)nn3C)CS[C@H]12)c1csc(N)n1` [ceftriaxone sodium], for which the phenotypic hit is inactive: 0.

With `O=C(Cc1cccs1)N[C@@H]1C(=O)N2C(C(=O)[O-])=C(C[n+]3ccccc3)CS[C@H]12` [cephaloridine], the phenotypic hit is inactive: 0. For the molecule `COc1ccc(-c2coc3c(OC)c(O)ccc3c2=O)cc1` [7-hydroxy-8,4'-dimethoxyisoflavone], the phenotypic hit was inactive: 0. In the case of `O=C(Oc1cc(OC(=O)c2ccccc2)c2c(c1)O[C@H](c1ccc(OC(=O)c3ccccc3)c(OC(=O)c3ccccc3)c1)[C@@H](OC(=O)c1ccccc1)C2)c1ccccc1` [catechin pentabenzoate], the phenotypic hit is inactive: 0.

For `NC1(C(=O)O)CCCC1` [cycloleucine], the phenotypic hit is inactive: 0.

With `NCCCC[C@H](N[C@@H](CCc1ccccc1)C(=O)O)C(=O)N1CCC[C@H]1C(=O)O` [lisinopril], the phenotypic hit is inactive: 0.

Consider `C[C@]12CCC(=O)C=C1CC[C@@H]1[C@@H]2[C@@H](O)C[C@@]2(C)[C@H]1CC[C@]2(O)C(=O)COC(=O)CCC(=O)O` [hydrocortisone hemisuccinate], for which the phenotypic hit is inactive: 0. With `CC(C)(C)NC[C@H](O)COc1nsnc1N1CCOCC1` [timolol maleate], the phenotypic hit was inactive: 0. As for `CC(C)CCC[C@@H](C)[C@H]1CC[C@H]2[C@@H]3CC[C@H]4C[C@H](O)CC[C@]4(C)[C@H]3CC[C@]12C` [epicholestanol], the phenotypic hit is inactive: 0. With `CCOC(=O)[C@H](CCc1ccccc1)N[C@H]1CCc2ccccc2N(CC(=O)O)C1=O` [benazepril hydrochloride] the figure was inactive: 0; with `CCOC(=O)OC(C)OC(=O)[C@@H]1N2C(=O)[C@@H](NC(=O)[C@H](N)c3ccccc3)[C@H]2SC1(C)C` (stereo not given in full) [bacampicillin hydrochloride], inactive: 0.

On to `CCCNC(C)C(=O)Nc1ccccc1C` (stereo not given) [prilocaine hydrochloride], for which the phenotypic hit was inactive: 0.

Consider `COc1ccc(CN(CCN(C)C)c2ccccn2)cc1` [Pyrilamine maleate], for which the phenotypic hit was inactive: 0. As to `CC(COc1ccccc1)N(CCCl)Cc1ccccc1` (stereo not given) [Phenoxybenzamine hydrochloride], the phenotypic hit was inactive: 0.

With `Nc1ncn([C@@H]2O[C@H](CO)[C@@H](O)[C@H]2O)c(=O)n1` [5-azacytidine], the phenotypic hit was inactive: 0. Take `COc1cc2cc3c4cc(OC)c(OC)cc4cc[n+]3c(C)c2cc1OC` [coralyne chloride]: the phenotypic hit is inactive: 0.

As to `C=C1c2cccc(O)c2C(=O)C2=C(O)[C@]3(O)C(=O)C(C(N)=O)=C(O)[C@@H](N(C)C)[C@@H]3[C@@H](O)[C@H]12` [methacycline hydrochloride], the phenotypic hit is inactive: 0. Turning to `COC(=O)C1=C(C)NC(C)=C(C(=O)OC)C1c1ccccc1[N+](=O)[O-]` [Nifedipine], the phenotypic hit was inactive: 0. For the molecule `Cc1cc(OC(=O)c2c(C)cc(O)cc2O)cc(O)c1C(=O)O` [lecanoric acid], the phenotypic hit is inactive: 0. Turning to `CN(C)CCCN1c2ccccc2CCc2ccc(Cl)cc21` [Clomipramine hydrochloride], the phenotypic hit was active: 1. Regarding `Cc1cc(NC(=O)C2=C(O)c3ccccc3S(=O)(=O)N2C)no1` [isoxicam], the phenotypic hit is inactive: 0. For `Cc1cc(C(C)(C)CC(C)(C)C)ccc1OCCOCC[N+](C)(C)Cc1ccccc1` [methylbenzethonium chloride], the phenotypic hit is inactive: 0.

On to `COC(=O)c1c(Cl)c(Cl)c(C(=O)OC)c(Cl)c1Cl` [dacthal], for which the phenotypic hit was inactive: 0. With `Nc1ccc(S(=O)(=O)Nc2ncccn2)cc1` [sulfadiazine], the phenotypic hit was inactive: 0. For the molecule `C[C@@H]1CC[C@@]2(OC1)O[C@H]1C[C@H]3[C@@H]4CC[C@H]5C[C@@H](O)CC[C@]5(C)[C@H]4CC[C@]3(C)[C@H]1[C@@H]2C` [tigogenin], the phenotypic hit is inactive: 0. Consider `Oc1cc(O)cc(/C=C/c2ccccc2)c1` [pinosylvin], for which the phenotypic hit was inactive: 0. For the molecule `O=c1c(O)c(-c2ccccc2)oc2ccccc12` [3-hydroxyflavone], the phenotypic hit is inactive: 0. `CO[C@@]1(NC(=O)C(C(=O)O)c2ccc(O)cc2)C(=O)N2C(C(=O)O)=C(CSc3nnnn3C)CO[C@@H]21` (stereo not given in full) [moxalactam disodium]: the phenotypic hit was inactive: 0. In the case of `C#C[C@]1(O)CC[C@H]2[C@@H]3CCC4=CC(=O)CC[C@@H]4[C@H]3CC[C@@]21C` [norethindrone], the phenotypic hit was inactive: 0. Consider `O=C1C(CC[S+]([O-])c2ccccc2)C(=O)N(c2ccccc2)N1c1ccccc1` (stereo not given) [sulfinpyrazone], for which the phenotypic hit is inactive: 0.

`CC(=O)OC/C=C(C)/C=C/C=C(C)/C=C/C1=C(C)CCCC1(C)C` [retinyl acetate]: the phenotypic hit is inactive: 0. On to `NS(=O)(=O)c1cc2c(cc1Cl)N=C(CSCc1ccccc1)NS2(=O)=O` [benzthiazide], for which the phenotypic hit was inactive: 0. As to `COc1cc(C(=O)O)c2c(c1C)OC(=O)c1c(C)cc(O)c(C=O)c1O2` [psoromic acid], the phenotypic hit was inactive: 0.

With `CC(=O)Oc1c(C)cccc1C(=O)O` [cresopyrine], the phenotypic hit was inactive: 0. Turning to `N=c1ccn2c(n1)O[C@H]1[C@H](O)[C@@H](CO)O[C@H]12` [ancitabine hydrochloride], the phenotypic hit was inactive: 0.

Consider `CS(=O)(=O)c1ccc([C@@H](O)[C@@H](CO)NC(=O)C(Cl)Cl)cc1` [thiamphenicol], for which the phenotypic hit was inactive: 0. With `C[C@]12C=CC(=O)C=C1CC[C@@H]1[C@@H]2[C@@H](O)C[C@@]2(C)[C@H]1CC[C@]2(O)C(=O)CO` [prednisolone], the phenotypic hit was inactive: 0. With `O=c1[nH]cc(F)c(=O)[nH]1` [fluorouracil], the phenotypic hit was active: 1. For `O=C(O)c1cc(=O)c2cccc(O)c2[nH]1` [xanthurenic acid], the phenotypic hit is inactive: 0. With `O=c1cc(-c2cc(O)c(O)c(O)c2)oc2cc(O)cc(O)c12` [hieracin], the phenotypic hit was inactive: 0. With `O=C(O)Cc1ccccc1Nc1c(Cl)cccc1Cl` [Diclofenac sodium] the figure was inactive: 0. In the case of `C[C@@H]1O[C@@H](Oc2c(-c3ccc(O)c(O)c3)oc3cc(O)cc(O)c3c2=O)[C@H](O)[C@H](O)[C@H]1O` [quercitrin], the phenotypic hit was inactive: 0. With `O=C1C=C2CC3(O)COc4cc(O)ccc4C3=C2C=C1O` (stereo not given) [brazilein] the figure was inactive: 0; with `N[C@H](Cc1ccccc1)C(=O)O` [d-phenylalanine], inactive: 0; with `O=c1c(-c2ccc(O)cc2)coc2cc(O)cc(O)c12` [Genistein], inactive: 0. Take `O=C1C=CC(=C(c2ccc(O)cc2)c2ccc(O)cc2)C=C1` [rosolic acid]: the phenotypic hit is inactive: 0. For `CNC(=C[N+](=O)[O-])NCCSCc1ccc(CN(C)C)o1` [Ranitidine hydrochloride], the phenotypic hit is inactive: 0. The same measure for `COc1cc2c(cc1OC)-c1cc3ccc(OC)c(OC)c3c[n+]1CC2` [palmatine]: inactive: 0; for `COC(=O)[C@H]1[C@H]2C[C@@H]3c4[nH]c5cc(OC)ccc5c4CCN3C[C@H]2C[C@@H](OC(=O)c2cc(OC)c(OC)c(OC)c2)[C@@H]1OC` [reserpine]: inactive: 0; for `CC[C@H](CC[C@@H](C)[C@H]1CC[C@H]2[C@@H]3CC=C4C[C@@H](OC(C)=O)CC[C@]4(C)[C@H]3CC[C@]12C)C(C)C` [sitosteryl acetate]: inactive: 0. As to `O=C(O[C@@H]1Cc2c(O)cc(O)cc2O[C@@H]1c1cc(O)c(O)c(O)c1)c1cc(O)c(O)c(O)c1` [epigallocatechin-3-monogallate], the phenotypic hit was inactive: 0. Regarding `C[C@]12CC[C@@H](O)C[C@H]1CCc1ccccc12` [3alpha-hydroxy-4,4-bisnor-8,11,13-podocarpatriene], the phenotypic hit was inactive: 0. With `CNC[C@H](O)c1cccc(O)c1` [Phenylephrine hydrochloride] the figure was inactive: 0; with `COC(=O)C[C@H]1C(C)(C)[C@@H](OC(C)=O)[C@@H]2CC3=C4CC(=O)O[C@@H](c5ccoc5)[C@]4(C)CC[C@@H]3[C@@]1(C)C2=O` [fissinolide], inactive: 0. As for `CCN(CC)CCCC(C)Nc1c2ccc(Cl)cc2nc2ccc(OC)cc12` (stereo not given) [Quinacrine dihydrochloride], the phenotypic hit was active: 1. Take `O=C(O)P(=O)(O)O` [foscarnet sodium]: the phenotypic hit is inactive: 0. Consider `CC1(C)C2CC(=O)O[C@@]3(C)C4=CC(=O)O[C@@H](c5ccoc5)[C@]4(C)CCC3[C@@]2(C)C=C[C@H]1O` (stereo not given in full) [deoxyandirobin lactone], for which the phenotypic hit is inactive: 0. Regarding `CC(=O)N1CCN(c2ccc(OCC3COC(Cn4ccnc4)(c4ccc(Cl)cc4Cl)O3)cc2)CC1` (stereo not given) [ketoconazole], the phenotypic hit is inactive: 0. Take `CC[C@]12CCCN3CCc4c(n(c5ccccc45)C(=O)C1)[C@@H]32` [eburnamonine]: the phenotypic hit is inactive: 0. Regarding `CC1(C)[C@@H](O[C@H]2O[C@H](C(=O)O)[C@@H](O)[C@H](O)[C@H]2O[C@@H]2O[C@H](C(=O)O)[C@@H](O)[C@H](O)[C@H]2O)CC[C@]2(C)[C@H]3C(=O)C=C4[C@@H]5C[C@@](C)(C(=O)O)CC[C@]5(C)CC[C@@]4(C)[C@]3(C)CC[C@@H]12` [glycyrrhizic acid], the phenotypic hit was inactive: 0.
